From patent publication US20160340421A1 (Regeneron, published 2016)
Changes are numbered by the printed parent chain. Names and notes keep the numbering of the source. Each block holds one binder with its values, some of them ahead of it.

Tests used:
[1] = target: T1, Activin A (UniProt P08476 311-426); assay: SPR Biacore T100, captured on anti-hFc, 25°C
T1 sequence (looked up): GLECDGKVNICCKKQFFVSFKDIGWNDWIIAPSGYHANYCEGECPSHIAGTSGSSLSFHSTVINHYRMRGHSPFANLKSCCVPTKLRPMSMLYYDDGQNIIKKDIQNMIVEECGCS
Method: (§1) Additional antigen binding experiments were conducted in which GDF8 and GDF11 were applied over a surface of selected anti-GDF8 antibodies and control antibodies at 25° C. and 37° C. Equilibrium dissociation constants (KD values) for antigen binding to selected antibodies were determined by surface kinetics using a real-time biosensor surface plasmon resonance assay (BIACORE™ T100). […] Various concentrations (2.5-0.625 nM, 2-fold dilutions) of hGDF8 homodimer or hGDF11 homodimer (or in some experiments, Activin A) were injected over the captured antibody surfaces, and antigen-antibody binding and dissociation were monitored in real time. Kinetic analysis was performed to calculate KD, dissociation rate constants (kd), association rate constants (ka) and half-life of antigen/antibody complex dissociation. (NB=no binding observed).

[2] = target: T2, hGDF11 homodimer (human, UniProt O95390 299-407); assay: SPR Biacore T100, captured on anti-hFc, 25°C
T2 sequence (looked up): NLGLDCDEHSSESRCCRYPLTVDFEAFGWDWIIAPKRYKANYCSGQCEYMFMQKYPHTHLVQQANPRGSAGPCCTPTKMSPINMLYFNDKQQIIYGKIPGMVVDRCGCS
Method: as §1

[3] = target: T3, Human GDF8 homodimer (mature human Growth and Differentiation Factor-8) (human, UniProt O14793 267-375); assay: SPR Biacore T100, captured on anti-hFc, 25°C
T3 construct: also called hGDF8; myostatin
T3 sequence: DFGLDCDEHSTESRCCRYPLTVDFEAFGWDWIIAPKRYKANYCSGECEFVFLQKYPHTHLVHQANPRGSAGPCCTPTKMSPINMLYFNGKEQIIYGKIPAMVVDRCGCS
Method: as §1

[4] = target: T2, hGDF11 homodimer; assay: SPR Biacore T100, captured on anti-hFc, 37°C
Method: as §1

[5] = target: T3, Human GDF8 homodimer (mature human …); assay: SPR Biacore T100, captured on anti-hFc, 37°C
Method: as §1

Kd [1]: 8.5 pM
T1/2 [1]: 196 min
Kd [2]: 0.0238 nM
T1/2 [2]: 132 min
Kd [3]: 0.0307 nM
T1/2 [3]: 111 min
Kd [4]: 9.92 pM
T1/2 [4]: 53 min
Kd [5]: 6.4 pM
T1/2 [5]: 104 min
B1: Control III: ActRIIB-Fc fusion construct (Fc fusion)
chain: EAETRECIYYNANWELERTNQSGLERCEGEQDKRLHCYASWANSSGTIELVKKGCWLDDFNCYDRQECVATEENPQVYFCCCEGNFCNERFTHLPEAGGPEVTYEPPPTAPSG[sequence of human IgG1 Fc not given]
notes: also called ActRIIB-hFc [A64]

Kd [1]: 3 pM
T1/2 [1]: 439 min
Kd [2]: 0.003 nM
T1/2 [2]: 231 min
Kd [3]: 0.0213 nM
T1/2 [3]: 238 min
B2: Control IV: variant ActRIIB-Fc fusion construct (Fc fusion)
chain: B1 chain with A42R
notes: identical to Control III except A64R; also called ActRIIB-hFc [R64]
